These are yes or no findings as the source states them, for the method shown. Some results given as binding are weak or reduced against the parent protein; the word gives no strength. Where a sequence is shown, tags or fusion partners need not be part of it.
T1: 3xFlag-PAK6 K436M (UniProt Q9NQU5)
T1 sequence: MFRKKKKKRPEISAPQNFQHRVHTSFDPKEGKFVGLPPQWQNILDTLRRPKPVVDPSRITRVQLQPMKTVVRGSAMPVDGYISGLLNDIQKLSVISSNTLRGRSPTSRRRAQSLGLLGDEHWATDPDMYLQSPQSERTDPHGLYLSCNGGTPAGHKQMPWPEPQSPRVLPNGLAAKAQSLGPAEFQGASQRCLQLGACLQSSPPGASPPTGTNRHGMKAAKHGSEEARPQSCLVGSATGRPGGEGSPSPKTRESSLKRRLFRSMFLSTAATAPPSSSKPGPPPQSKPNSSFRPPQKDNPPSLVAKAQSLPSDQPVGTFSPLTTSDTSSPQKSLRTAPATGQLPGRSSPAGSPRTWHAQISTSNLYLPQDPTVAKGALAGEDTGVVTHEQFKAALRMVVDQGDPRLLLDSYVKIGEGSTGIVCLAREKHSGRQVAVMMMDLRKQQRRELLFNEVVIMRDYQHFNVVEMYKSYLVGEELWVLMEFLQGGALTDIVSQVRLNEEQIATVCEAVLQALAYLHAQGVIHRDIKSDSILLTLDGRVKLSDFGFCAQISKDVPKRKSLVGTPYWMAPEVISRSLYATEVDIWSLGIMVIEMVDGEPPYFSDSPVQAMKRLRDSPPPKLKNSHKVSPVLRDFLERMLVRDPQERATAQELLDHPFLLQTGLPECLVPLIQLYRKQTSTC

By UniProt entry, the sequences of proteins in these tests, tags left out.
UniProt Q5S007: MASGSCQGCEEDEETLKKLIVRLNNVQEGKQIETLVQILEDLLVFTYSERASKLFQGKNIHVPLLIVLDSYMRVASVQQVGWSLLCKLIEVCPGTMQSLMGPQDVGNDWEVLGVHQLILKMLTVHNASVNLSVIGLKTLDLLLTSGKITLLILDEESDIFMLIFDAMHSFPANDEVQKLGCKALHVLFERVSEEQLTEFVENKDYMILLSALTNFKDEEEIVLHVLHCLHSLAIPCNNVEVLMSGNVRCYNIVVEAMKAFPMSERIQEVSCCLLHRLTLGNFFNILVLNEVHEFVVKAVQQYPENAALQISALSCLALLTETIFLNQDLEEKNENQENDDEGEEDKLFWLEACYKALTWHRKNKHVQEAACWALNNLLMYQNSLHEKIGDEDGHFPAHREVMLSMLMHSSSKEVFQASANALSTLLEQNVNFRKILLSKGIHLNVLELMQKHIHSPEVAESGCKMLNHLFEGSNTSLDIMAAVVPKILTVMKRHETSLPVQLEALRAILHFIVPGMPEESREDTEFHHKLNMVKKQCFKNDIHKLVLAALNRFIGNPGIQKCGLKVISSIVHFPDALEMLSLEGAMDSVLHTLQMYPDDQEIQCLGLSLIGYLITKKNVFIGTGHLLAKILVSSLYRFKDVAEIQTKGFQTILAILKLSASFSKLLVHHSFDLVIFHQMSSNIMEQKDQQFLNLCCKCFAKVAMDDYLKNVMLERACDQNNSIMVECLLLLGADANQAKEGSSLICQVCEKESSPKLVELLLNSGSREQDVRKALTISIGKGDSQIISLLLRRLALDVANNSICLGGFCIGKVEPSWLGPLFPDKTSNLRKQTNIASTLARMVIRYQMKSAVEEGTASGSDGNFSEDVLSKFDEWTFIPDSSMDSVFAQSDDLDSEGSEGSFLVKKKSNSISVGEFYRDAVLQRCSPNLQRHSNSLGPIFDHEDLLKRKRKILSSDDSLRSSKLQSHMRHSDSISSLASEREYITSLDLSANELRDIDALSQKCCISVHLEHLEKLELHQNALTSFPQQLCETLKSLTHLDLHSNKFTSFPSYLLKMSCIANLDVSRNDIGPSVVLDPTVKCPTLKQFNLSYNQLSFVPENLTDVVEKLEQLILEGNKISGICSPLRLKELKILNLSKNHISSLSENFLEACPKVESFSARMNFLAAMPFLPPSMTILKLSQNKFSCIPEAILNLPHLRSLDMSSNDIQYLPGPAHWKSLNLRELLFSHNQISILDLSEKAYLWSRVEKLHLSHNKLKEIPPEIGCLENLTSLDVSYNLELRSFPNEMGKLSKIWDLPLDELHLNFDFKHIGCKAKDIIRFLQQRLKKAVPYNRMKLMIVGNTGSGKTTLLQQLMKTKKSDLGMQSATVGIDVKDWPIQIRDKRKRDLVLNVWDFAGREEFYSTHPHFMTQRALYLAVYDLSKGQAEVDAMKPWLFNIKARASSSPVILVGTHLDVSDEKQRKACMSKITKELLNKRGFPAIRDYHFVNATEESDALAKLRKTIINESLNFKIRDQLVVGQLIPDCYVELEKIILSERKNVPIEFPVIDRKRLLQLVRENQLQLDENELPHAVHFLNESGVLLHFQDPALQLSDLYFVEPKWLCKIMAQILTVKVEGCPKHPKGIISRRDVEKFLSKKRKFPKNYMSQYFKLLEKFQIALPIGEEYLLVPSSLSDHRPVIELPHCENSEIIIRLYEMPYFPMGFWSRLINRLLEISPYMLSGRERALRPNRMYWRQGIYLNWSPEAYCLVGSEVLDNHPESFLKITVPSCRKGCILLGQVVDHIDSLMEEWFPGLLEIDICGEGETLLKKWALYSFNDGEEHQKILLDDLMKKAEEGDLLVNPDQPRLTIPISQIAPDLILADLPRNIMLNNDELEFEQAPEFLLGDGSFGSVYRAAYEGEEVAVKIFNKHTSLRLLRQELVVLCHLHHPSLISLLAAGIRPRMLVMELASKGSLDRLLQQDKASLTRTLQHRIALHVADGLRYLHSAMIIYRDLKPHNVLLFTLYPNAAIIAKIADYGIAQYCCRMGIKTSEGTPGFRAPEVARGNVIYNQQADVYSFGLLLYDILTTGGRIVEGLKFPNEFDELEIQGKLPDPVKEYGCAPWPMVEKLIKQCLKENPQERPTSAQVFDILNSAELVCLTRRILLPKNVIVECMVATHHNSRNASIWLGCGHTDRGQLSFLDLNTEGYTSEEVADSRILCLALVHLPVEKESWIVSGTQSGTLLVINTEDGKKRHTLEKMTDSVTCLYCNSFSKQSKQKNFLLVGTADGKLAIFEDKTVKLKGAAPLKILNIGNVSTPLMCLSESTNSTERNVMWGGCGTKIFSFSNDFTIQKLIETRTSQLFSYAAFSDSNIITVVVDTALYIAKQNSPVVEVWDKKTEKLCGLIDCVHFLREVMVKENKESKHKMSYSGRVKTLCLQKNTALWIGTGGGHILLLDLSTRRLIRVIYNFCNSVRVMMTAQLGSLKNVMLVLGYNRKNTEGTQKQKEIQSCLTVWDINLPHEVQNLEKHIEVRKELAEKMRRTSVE


Key:
3xFlag-LRRK2 wild-type = 3xFlag-LRRK2 wild-type (UniProt Q5S007); assay: far-Western, overlay or dot blot; immunopurified Flag-tagged PAK6 or LRRK2 separated by SDS-PAGE and blotted onto nitrocellulose; incubated with purified His-14-3-3s at 1 μg/ml in 5% BSA in TBS-T overnight at 4°C; anti-His detection; both purified
His-14-3-3γ S59D (human) = His-14-3-3γ S59D (human) (UniProt P61981); assay: native gel or EMSA; blue native gel (4-16%) of purified His-14-3-3γ wild-type, S59D and T145D; 5 μg of protein loaded; Coomassie staining; both purified
3xFlag-PAK6 K436M = molecular target: T1, 3xFlag-PAK6 K436M; assay: far-Western, overlay or dot blot; immunopurified Flag-tagged PAK6 or LRRK2 separated by SDS-PAGE and blotted onto nitrocellulose; incubated with purified His-14-3-3s at 1 μg/ml in 5% BSA in TBS-T overnight at 4°C; anti-His detection; both purified

| Binder | binding (3xFlag-LRRK2 wild-type) | also measured |
| --- | --- | --- |
| 6xHis-14-3-3 theta (protein, UniProt P27348 1-245) MEKTELIQKAKLAEQAERYDDMATCMKAVTEQGAELSNEERNLLSVAYKNVVGGRRSAWRVISSIEQKTDTSDKKLQLIKDYREKVESELRSICTTVLELLDKYLIANATNPESKVFYLKMKGDYFRYLAEVACGDDRKQTIDNSQGAYQEAFDISKKEMQPTHPIRLGLALNFSVFYYEILNNPELACTLAKTAFDEAIAELDTLNEDSYKDSTLIMQLLRDNLTLWTSDSAGEECDAAEGAEN | binds | – |
| His-14-3-3γ S59A (protein, UniProt P61981 1-247) MVDREQLVQKARLAEQAERYDDMAAAMKNVTELNEPLSNEERNLLSVAYKNVVGARRSAWRVISSIEQKTSADGNEKKIEMVRAYREKIEKELEAVCQDVLSLLDNYLIKNCSETQYESKVFYLKMKGDYYRYLAEVATGEKRATVVESSEKAYSEAHEISKEHMQPTHPIRLGLALNYSVFYYEIQNAPEQACHLAKTAFDDAIAELDTLNEDSYKDSTLIMQLLRDNLTLWTSDQQDDDGGEGNN | binds | – |
| His-14-3-3γ T145A (protein, UniProt P61981 1-247) MVDREQLVQKARLAEQAERYDDMAAAMKNVTELNEPLSNEERNLLSVAYKNVVGARRSSWRVISSIEQKTSADGNEKKIEMVRAYREKIEKELEAVCQDVLSLLDNYLIKNCSETQYESKVFYLKMKGDYYRYLAEVATGEKRAAVVESSEKAYSEAHEISKEHMQPTHPIRLGLALNYSVFYYEIQNAPEQACHLAKTAFDDAIAELDTLNEDSYKDSTLIMQLLRDNLTLWTSDQQDDDGGEGNN | binds | – |
| His-14-3-3γ S59D (protein, UniProt P61981 1-247) MVDREQLVQKARLAEQAERYDDMAAAMKNVTELNEPLSNEERNLLSVAYKNVVGARRSDWRVISSIEQKTSADGNEKKIEMVRAYREKIEKELEAVCQDVLSLLDNYLIKNCSETQYESKVFYLKMKGDYYRYLAEVATGEKRATVVESSEKAYSEAHEISKEHMQPTHPIRLGLALNYSVFYYEIQNAPEQACHLAKTAFDDAIAELDTLNEDSYKDSTLIMQLLRDNLTLWTSDQQDDDGGEGNN | – | binding (His-14-3-3γ S59D (human)): no binding |
| 6xHis-14-3-3γ wild-type (protein, UniProt P61981 1-247) MVDREQLVQKARLAEQAERYDDMAAAMKNVTELNEPLSNEERNLLSVAYKNVVGARRSSWRVISSIEQKTSADGNEKKIEMVRAYREKIEKELEAVCQDVLSLLDNYLIKNCSETQYESKVFYLKMKGDYYRYLAEVATGEKRATVVESSEKAYSEAHEISKEHMQPTHPIRLGLALNYSVFYYEIQNAPEQACHLAKTAFDDAIAELDTLNEDSYKDSTLIMQLLRDNLTLWTSDQQDDDGGEGNN | – | binding (3xFlag-PAK6 K436M): no binding (tested: 1 μg/ml) |

Further lines, with some results ahead:

| binding (3xFlag-LRRK2 wild-type) | Binder | also measured |
| --- | --- | --- |
| binds | PAK6-phosphorylated 14-3-3γ S59A (protein, UniProt P61981 1-247, subjected to PAK6 phosphorylation (1 mM ATP); sites not told for this variant) MVDREQLVQKARLAEQAERYDDMAAAMKNVTELNEPLSNEERNLLSVAYKNVVGARRSAWRVISSIEQKTSADGNEKKIEMVRAYREKIEKELEAVCQDVLSLLDNYLIKNCSETQYESKVFYLKMKGDYYRYLAEVATGEKRATVVESSEKAYSEAHEISKEHMQPTHPIRLGLALNYSVFYYEIQNAPEQACHLAKTAFDDAIAELDTLNEDSYKDSTLIMQLLRDNLTLWTSDQQDDDGGEGNN | – |
| binds | His-14-3-3γ T145D (protein, UniProt P61981 1-247) MVDREQLVQKARLAEQAERYDDMAAAMKNVTELNEPLSNEERNLLSVAYKNVVGARRSSWRVISSIEQKTSADGNEKKIEMVRAYREKIEKELEAVCQDVLSLLDNYLIKNCSETQYESKVFYLKMKGDYYRYLAEVATGEKRADVVESSEKAYSEAHEISKEHMQPTHPIRLGLALNYSVFYYEIQNAPEQACHLAKTAFDDAIAELDTLNEDSYKDSTLIMQLLRDNLTLWTSDQQDDDGGEGNN | – |

Source: article PMC5735978
